Data reported in PubChem BioAssay AID1347417 (National Center for Advancing Translational Sciences (NCATS), 2020).
Among all 120,000 compounds or so, about 5,300 (4.4%) were called active. Inconclusive results, whose numbers are uncertain, are shown with a selection of clear calls. The call rests on the fitted dose curve; in most records, active means well fitted inhibition curve with a large enough effect; inconclusive means small, poorly fitted or top-dose-only effect; inactive means no such curve, though single readings can be large or run the other way. Potencies of inconclusive entries are doubtful fits and often do not repeat.

Test: qHTS Primary assay for Inhibitors of Plasmodium falciparum Dd2 growth in vitro; further: nearly all actives have a fitted effect of over 65% in size
Conditions: P. falciparum Dd2 growth, SYBR Green, 72 h; series mostly up to 28.9 µM
Procedure, shortened: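 Readout: SYBR Green fluorescence, 485 nm excitation, 535 nm emission, after ~16 h lysis at 37C. Before that, Dd2-infected red cells (2.5% hematocrit) grew 72 h with compound, 29 uM top final concentration.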
Potency means the concentration at half of the fitted maximal effect; tags describe the fitted curve by direction and shape.

Structure (SMILES)	Potency
COc1cc(CNCCc2ccccc2C)ccc1OCC(O)CN1CCOCC1 (stereo not given)	active: 11.2 µM
Cc1ccc(Cl)cc1NC(=O)c1ccc(-c2nc(CSc3ccccc3)c(C)o2)cc1	inactive
CCc1ccc(CN(C(=O)c2nc(SC)ncc2Cl)C2CCS(=O)(=O)C2)cc1 (stereo not given)	inconclusive: 0.0079 µM [inhibitor, full curve, poor fit]
CCOc1ccccc1CN1CCCOCCNC(=O)CC1	inconclusive: 8.91 µM [inhibitor, partial curve, poor fit]
COc1cccc(N2C(=O)NC(=NC3CCCCC3)C23CCCN([S+](=O)([O-])c2cccc(C(F)(F)F)c2)C3)c1 (stereo not given)	active: 12.6 µM
COc1ccc(OC)c(-c2n[nH]c3c2CC(=O)N(CCOc2ccccc2)C3)c1	inactive
O=C(c1cccnc1)N1CCN(c2nnc3ccc(Cl)cn23)CC1	inconclusive: 3.55 µM [inhibitor, partial curve]
COc1ccc(C(=O)Nc2ccc(-c3nnc4n3CCCC4)cc2)cn1	active: 7.08 µM
CCCNC(=O)N(C1CCOCC1)C1CCN(S(=O)(=O)c2ccc(C)cc2C)CC1	inconclusive: 3.98 µM [inhibitor, single point]
N#Cc1ccc(-c2nc(C(=O)NCC3CCCCC3)no2)cc1	inactive
CC(C)N1CNC(=O)C12CCN(C(=O)c1ccc(Cl)cc1)CC2	inactive
O=c1c2c3c(sc2nnn1Cc1ccc(Br)cc1)CCCC3	inconclusive: 8.91 µM [inhibitor, partial curve]
CCOc1ccccc1NC(=O)Cn1c(=O)ccc2cc(S(=O)(=O)N3CCC(C)CC3)ccc21	active: 12.6 µM
CCOC(=O)c1ccc(NC(=O)CCc2c(C)nc3c(c(C)nn3C)c2C)cc1	inconclusive: 8.91 µM [inhibitor, single point]
COc1ncc(CN2CCc3c(n(CCOc4ccccc4)n(-c4ccccc4)c3=O)C2)cn1	inactive
CC(=O)c1ccc(N2CCN(C(=O)C3CCN(S(=O)(=O)c4cccc5nonc45)CC3)CC2)cc1	inconclusive: 17.8 µM [inhibitor, single point]
O=C(Nc1cccc(Cl)c1)c1cnc2c(c1)N([S+](=O)([O-])c1cccnc1)CCC2	active: 11.2 µM
COc1ccc(Nc2ccc3nnc(-c4ccccn4)n3n2)cc1	inactive
COc1ccc(C(=O)N2CCC3(CC2)CC2C(=O)NCCN2C3)c(OC)c1 (stereo not given)	inactive
CC(C)c1ccc(CN2CC(CNc3cccnc3)C3(C2)CN(c2ccccc2)C3)cc1 (stereo not given)	inconclusive: 0.562 µM [inhibitor, full curve, poor fit]
CCc1ccc(CNC(=O)c2ccc(CSc3nc4ccncc4n3Cc3ccccc3)cc2)cc1	active: 10 µM
Cn1ccnc1CN1C(=O)CO[C@H]2CN(C(=O)c3cnccn3)C[C@H]21	inactive
COc1ccc(CNC(=O)Nc2cn(CC(C)C)c(=O)c3ccccc23)c(OC)c1	inactive

Structure (SMILES)	Potency
COc1ccccc1/C=C/CN1CCCC(CCC(=O)Nc2ccccc2F)C1 (stereo not given)	active: 8.91 µM
COC(=O)[C@H](Cc1ccc(OC)cc1)NC(=O)[C@H]1CN(C(=O)c2cccnc2)CCN1S(C)(=O)=O	inconclusive: 10 µM [inhibitor, single point]
Fc1ccc(OCCOC2CCNCC2)cc1	inconclusive: 7.94 µM [inhibitor, partial curve, poor fit]
COCc1cc(=O)n(CC(=O)Nc2ccc(F)c(Cl)c2)c(N2CCOCC2)n1	inactive
Cc1cc(C)cc(C(=O)N2CCCC3(C2)NC(=O)N(Cc2cccc(Cl)c2)C3=O)c1 (stereo not given)	inactive
CCN1c2ccccc2-c2nc(SCC(=O)Nc3ccc(C)c(Cl)c3)ncc2S1(=O)=O	inconclusive: 17.8 µM [inhibitor, single point]
CC(=O)c1cc(C(=O)Nc2cccc(C)c2)c2ccccn12	inconclusive: 17.8 µM [inhibitor, single point]
Cc1ccc(C)c(N(C)C(=O)C2CCN(S(=O)(=O)c3cccc4nsnc34)CC2)c1	inconclusive: 11.2 µM [inhibitor, single point]
Cc1ccc(S(=O)(=O)NCc2nc3nc(C)cc(C)n3n2)c(C)c1	inconclusive: 0.224 µM [inhibitor, full curve, poor fit]
Cc1cccc(-c2noc([C@@H]3C[C@@H](O)CN3Cc3ccccn3)n2)c1	inactive
CC(C)N1CCN(c2ccc3nnc(C4CCC4)n3n2)CC1	inconclusive: 0.316 µM [inhibitor, full curve]
COc1cncc([C@@H](NC(=O)c2coc3ccccc23)C2CC(O)C2)c1 (stereo not given in full)	inactive
Cc1noc(-c2ccccc2OCC(=O)Nc2cccc([N+](=O)[O-])c2)n1	inactive
CC(=O)c1ccc(N2CCN(C(=O)NCc3noc4ccc(C)cc34)CC2)cc1	inconclusive: 17.8 µM [inhibitor, single point]
O=C(Cc1ccc(-c2ccccc2)cc1)N1CC(COc2ccccc2)C2(C1)CN(C(=O)c1cn[nH]c1)C2 (stereo not given)	inconclusive: 12.6 µM [inhibitor, partial curve, poor fit]
Cc1noc(C)c1-c1cc2c(cc(-c3ccccc3)n2C)c(-c2ccnn2C)n1	inconclusive: 1.26 µM [inhibitor, full curve, poor fit]
O=[N+]([O-])c1ccccc1CN1C[C@H](O)C[C@H]1c1nc(-c2ccc(F)cc2)no1	inconclusive: 11.2 µM [inhibitor, single point]
Cc1ccc(CN2CCN(C3CCN(C(=O)OC(C)(C)C)CC3)C(=O)C2=O)cc1	inconclusive: 10 µM [inhibitor, single point]
COc1ccc(OCc2cc(C(=O)N(C)CCCO)n[nH]2)c(Cl)c1	inactive
Cc1noc(C)c1CCC(=O)NC1CCCc2c1[nH]c1c(Cl)cccc21 (stereo not given)	inconclusive: 11.2 µM [inhibitor, single point]
Cc1noc(C)c1-c1cc2cc(CO)oc2c(N2CCN(c3ccccn3)CC2)n1	inconclusive: 2.51 µM [inhibitor, partial curve]
COc1ccccc1NC(=O)CSCc1cc(=O)c2c(C)cc(C)cc2[nH]1	inconclusive: 17.8 µM [inhibitor, single point]
